# Measured values: PubChem BioAssay AID588855 (National Center for Advancing Translational Sciences (NCATS), 2011)
# Out of some 410,000 compounds screened, about 5,000 (1.2%) were called active. The inconclusive results got no clear call from the source; some entries with a clear call stand among them for comparison. Calls follow the shape of the dose curve; as a rule, active = well fitted inhibition curve with a large enough effect; inconclusive = small, poorly fitted or top-dose-only effect; inactive = no such curve, though single readings can be large or run the other way. Where the call is inconclusive, the potency comes from a doubtful curve fit.
# Assay: qHTS for Inhibitors of TGF-b; also: nearly all actives have a fitted effect of over 65% in size
# Conditions: HepG2 CAGA-GFP TGF-b/SMAD3 reporter, GFP fluorescence, 18 h, TGF-beta stimulated, 500 pg/mL final; series mostly up to 46.1 µM
# Summary of the method: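 Cell-based qHTS in HEPG2 carrying a CAGA-GFP Smad reporter; compounds added before 500 pg/mL final TGF-beta, 18 h incubation at 37 degrees C, GFP fluorescence quantified per cell by imaging cytometry.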
# Potency is read from the fitted curve at half-maximal effect; tags tell the direction and shape of the fitted curve.
row,SMILES,Potency
1,Cc1[nH]c2ccccc2c1C(=O)C(=O)Nc1ccc2c(c1)OCCO2,inactive
2,CC1=C(C(=O)OC2CCCCCC2)C(c2c(F)cccc2Cl)CC(=O)N1 (stereo unspecified),"inconclusive: 20 µM [inhibitor, partial curve, poor fit]"
3,O=C1CC(c2cccc([N+](=O)[O-])c2)c2c(ccc3ccccc23)N1 (stereo unspecified),"inconclusive: 35.5 µM [inhibitor, single point]"
4,COC(=O)/C(C#N)=C/c1occc1C,"inconclusive: 35.5 µM [inhibitor, single point]"
5,COc1ccc(N(Cc2cccs2)C(=O)COc2cccc(Cl)c2)cc1,"inconclusive: 35.5 µM [inhibitor, single point]"
6,CCOC(=O)c1c(OCC)[nH]c2c1cc(O)c1ccccc12,"inconclusive: 35.5 µM [inhibitor, single point]"
7,CCCc1nc2ccc(C(=O)OC)cn2c1Cc1cccc(F)c1,"inconclusive: 7.08 µM [inhibitor, partial curve, poor fit]"
8,Cc1ccn2c(C(=O)CSc3ccc(Cl)cc3)c(C)nc2c1,inactive
9,O=C(CSC1CC(=O)N(c2ccc(C(=O)O)cc2)C1=O)Nc1ccc2ccccc2c1 (stereo unspecified),inactive
10,CCOc1ccc(C(=O)Nc2ccccc2N2CCCC2)cc1,inactive
11,CCOc1ncccc1C(=O)N1CCN(S(=O)(=O)c2ccc3ccccc3c2)CC1,"inconclusive: 17.8 µM [inhibitor, single point]"
12,CCCCCc1cc(=O)oc2c(C(CCN3CCCCC3)c3cc(OC)c(OC)c(OC)c3)c(OC)cc(OC)c12 (stereo unspecified),active: 15.8 µM
13,COc1ccc(NC(=O)CN(Cc2ccccc2)S(=O)(=O)c2ccc(C)cc2)cc1Cl,"inconclusive: 20 µM [inhibitor, partial curve, poor fit]"
14,CCOc1cc(C2C(C(=O)OC)=C(C)NC3=C2C(=O)c2ccccc23)cc(Cl)c1O (stereo unspecified),"inconclusive: 31.6 µM [inhibitor, partial curve, poor fit]"
15,O=C(CCC1N=C2c3ccccc3N=C(SCc3ccccc3F)N2C1=O)NC1CCCCC1 (stereo unspecified),"inconclusive: 1.26 µM [inhibitor, full curve, poor fit]"
16,CCOC(=O)c1c(C)n(CCOc2ccccc2)c2ccc(O)cc12,"inconclusive: 3.55 µM [inhibitor, single point]"
17,C=C1NN(C(C)C(=O)O)C(=O)N1c1ccc(OCc2ccccc2)cc1 (stereo unspecified),inactive
18,CCn1nnc(NC(=O)CSc2ccc(Cl)cc2)n1,inactive
19,CN(Cc1cccc(C(F)(F)F)c1)C(=O)C1CCC(=O)N(CC2CCCCC2)C1 (stereo unspecified),"inconclusive: 11.2 µM [inhibitor, partial curve, poor fit]"
20,Cc1cccc(-n2ncc3c(Nc4ccc(Oc5ccc(Cl)cc5)cc4)ncnc32)c1,inactive
21,CCOC(=O)N1CCN(C(=O)CN2C(=O)/C(=C\c3cccc(OC)c3)SC2=S)CC1,inactive
22,Cc1ccc(C)n1-c1c(C(=O)NCCC(C)C)sc2ncccc12,"inconclusive: 14.1 µM [inhibitor, partial curve, poor fit]"

row,SMILES,Potency
1,C=CCn1c(CSc2nc3ccccc3s2)nnc1SCC(=O)NCc1ccccc1,"inconclusive: 35.5 µM [inhibitor, single point]"
2,Cc1ccc(C)c(OCCC(=O)OCC(=O)NC2CCCC2)c1,inactive
3,CCOC(=O)C1CCN(C(=O)Cn2c(=O)cc(C)c3c(C)nn(C)c32)CC1,inactive
4,O=c1c2cnn(-c3ccccc3)c2nc(-c2cccs2)n1-c1ccc(Br)cc1,"inconclusive: 5.01 µM [inhibitor, single point]"
5,CSc1ccccc1OCc1cc(C(=O)NCCn2ccnc2C)no1,inactive
6,CCCC(=O)N1CCCC1(C)C(=O)Nc1ccc2cn[nH]c2c1 (stereo unspecified),inactive
7,Cc1ccc(-c2nc3ccccc3s2)cc1NC(=S)NC(=O)c1cccc2ccccc12,"inconclusive: 22.4 µM [inhibitor, single point]"
8,COc1ccc(C(=O)NCCn2cc(SCC(=O)Nc3cccc(C)c3)c3ccccc32)cc1,"inconclusive: 22.4 µM [inhibitor, single point]"
9,O=C(Nc1ccn(Cc2ccccc2F)n1)c1ccc(COc2ccc(Cl)cc2Cl)o1,"inconclusive: 35.5 µM [inhibitor, single point]"
10,CC(C)C(=O)N(c1ccc2oc(=O)sc2c1)S(=O)(=O)c1cccs1,"inconclusive: 35.5 µM [inhibitor, partial curve, poor fit]"
11,O=[N+]([O-])c1cccc(NC(=S)NCCc2ccccc2)c1,"inconclusive: 35.5 µM [inhibitor, single point]"
12,CCOC(=O)C1=CCN(S(=O)(=O)c2cccc(Cl)c2)C1c1ccc(F)cc1 (stereo unspecified),"inconclusive: 0.562 µM [inhibitor, full curve, poor fit]"
13,Cc1onc(C(=O)Nc2sc3c(c2C#N)CCCC3)c1[N+](=O)[O-],"inconclusive: 14.1 µM [inhibitor, single point]"
14,C1=CC(c2cc3ccccc3o2)OC(CCc2ccccc2)C1 (stereo unspecified),"inconclusive: 6.31 µM [inhibitor, partial curve, poor fit]"
15,Cc1cccc(NC(=O)c2cccc(S(=O)(=O)N(C)c3ccccc3)c2)n1,"inconclusive: 10 µM [inhibitor, partial curve, poor fit]"
16,COc1ccc(CCNC(=O)C2CCCN(S(=O)(=O)c3ccccc3)C2)cc1 (stereo unspecified),"inconclusive: 35.5 µM [inhibitor, single point]"
17,Cc1ccc(-c2nc(C(=O)NCCCN(C)C)cc3c2[nH]c2ccccc23)cc1,"inconclusive: 35.5 µM [inhibitor, single point]"
18,COc1ccc(C(=O)C2CCCN(C(=O)c3ccc(C(C)=O)s3)C2)c(C)c1 (stereo unspecified),"inconclusive: 35.5 µM [inhibitor, single point]"
19,O=C(/C=C/c1ccccc1Cl)c1ccc(O)cc1,"inconclusive: 35.5 µM [inhibitor, single point]"
20,O=C(NC1CCCCC1)c1cc2c(Cl)nc3ccccc3c2s1,"inconclusive: 35.5 µM [inhibitor, single point]"
21,CC(=O)c1ccc(OCc2ccc(Oc3c(Cl)cccc3[N+](=O)[O-])cc2)cc1,"inconclusive: 12.6 µM [inhibitor, single point]"
22,COc1ccc(-n2c(CNC(=O)COc3ccc(Cl)cc3)n[nH]c2=S)cc1,"inconclusive: 0.1 µM [inhibitor, full curve, poor fit]"

row,SMILES,Potency
1,COc1ccccc1CNC(=O)C(=O)NCC(c1ccco1)S(=O)(=O)c1cccs1 (stereo unspecified),"inconclusive: 0.282 µM [inhibitor, full curve, poor fit]"
2,Oc1ccccc1C1C=C(c2ccc3c(c2)OCO3)NC(c2cccc(F)c2)N1 (stereo unspecified),"inconclusive: 22.4 µM [inhibitor, single point]"
3,OCCCc1nc2ccccc2n1CCCCOc1ccccc1,"inconclusive: 12.6 µM [inhibitor, single point]"
4,Cc1cccc(-c2noc(CN(C(=O)COc3ccc(Br)cc3C)C(C)C)n2)c1,"inconclusive: 22.4 µM [inhibitor, partial curve]"
5,O=C1Cc2cc(NS(=O)(=O)c3ccc(Cl)cc3)cc3c2N1CCC3,"inconclusive: 0.1 µM [inhibitor, full curve]"
6,OC(Cc1cccnc1)c1ccccc1 (stereo unspecified),inactive
7,CCCn1c2ccc(C)cc2c2n[nH]c(=S)nc21,inactive
8,COc1ccc(-n2c(C)cc(C(=O)CCl)c2C)cc1,"inconclusive: 35.5 µM [inhibitor, single point]"
9,O=S(=O)(c1ccc(OC(F)(F)F)cc1)N1CCCC(N2CCOCC2)C1 (stereo unspecified),inactive
10,CS(=O)(=O)N(CC(=O)NCc1ccccc1Cl)c1cccc([N+](=O)[O-])c1,"inconclusive: 3.98 µM [inhibitor, partial curve, poor fit]"
11,COc1cc(-c2noc(C)c2C(=O)NCCc2c[nH]c3ccccc23)cc(OC)c1OC,inactive
12,NC(Cc1ccc(C(F)(F)F)cc1)c1csc(Nc2ccc(S(N)(=O)=O)cc2)n1 (stereo unspecified),"inconclusive: 25.1 µM [inhibitor, single point]"
13,CN(c1ccccc1)c1nc(N2CCCC2)nc(-n2ccnc2)n1,inactive
14,O=[N+]([O-])c1ccccc1S(=O)(=O)c1ccccc1[N+](=O)[O-],"inconclusive: 35.5 µM [inhibitor, single point]"
15,Cc1cc(C)c(CSc2nnc(C)n3c2cc2occc23)c(C)c1,"inconclusive: 35.5 µM [inhibitor, single point]"
16,O=C1NC(Cc2ccc(O)cc2)c2nc3ccc(F)cc3c(=O)n2-c2cc3ccccc3cc21 (stereo unspecified),"inconclusive: 11.2 µM [inhibitor, partial curve, poor fit]"
17,CCN(Cc1ccccc1)C(=O)c1nc(-c2cccc(F)c2)n2c1CCCCC2,"inconclusive: 0.355 µM [inhibitor, full curve, poor fit]"
18,Cc1ccn2c(Nc3ccccc3C)c(-c3ccccn3)nc2c1,active: 12.6 µM
19,Cc1cnc(C(=O)N2CCN(S(=O)(=O)c3cc(C(F)(F)F)cc(C(F)(F)F)c3)CC2)cn1,"inconclusive: 14.1 µM [inhibitor, single point]"
20,O=C1NC[C@@H](c2ccccc2)OC(=O)[C@H](Cc2ccc(F)cc2)C/C=C\C[C@@H]1CC(=O)N(CCO)Cc1ccccc1,"inconclusive: 35.5 µM [inhibitor, single point]"
21,O=C(CSc1nnc(-c2ccncc2)n1-c1ccc(Cl)cc1)NCc1cccs1,inactive
22,COc1cc(C(=O)Nc2nc3nc(-c4ccccc4)cc(=O)n3[nH]2)cc(OC)c1OC,"inconclusive: 35.5 µM [inhibitor, single point]"
